Results on 7 molecules are retold here after the supplement of paper PMC12350171.

Test [1] relates to Salmonella enterica Typhimurium in Com20. As to the kind of experiment: S. Typhimurium luminescence in drug-pretreated Com20 relative to untreated Com20 (fold of untreated control); higher = more pathogen expansion.
For test [2], the system named is Salmonella enterica Typhimurium (community: Com21 (Com20 + E. coli ED1a)). As to the kind of experiment: pathogen growth (luminescence or CFU) in drug-pretreated community relative to untreated community (fold of untreated control); higher = more pathogen expansion.
[3] abbreviates: drug pretreatment concentration 10 µM.
[4] abbreviates: drug pretreatment concentration 20 µM.
[5] abbreviates: drug pretreatment concentration 40 µM.
[6] abbreviates: drug pretreatment concentration 80 µM.
The mark [7] stands for this setting: drug pretreatment concentration 160 µM.
Setting [8] is: drug pretreatment concentration 2.5 µM.
Setting [9] is: drug pretreatment concentration 5 µM.

Synthetic gut communities (20 or 21 species) grown anaerobically with drug for 24 h at the dose given, then challenged with the named pathogen. Pathogen growth (luminescence, or colony counts for V. cholerae) or community OD578 as fold of untreated communities, mean of three; above 1 = more growth. No active / inactive call.

With `C[C@H]1O[C@H](O[C@H]2[C@H](O)[C@@H](O)[C@@H](O[C@H]3[C@H](O)[C@@H](O)C(O)O[C@@H]3CO)O[C@@H]2CO)[C@H](O)[C@@H](O)[C@@H]1N[C@H]1C=C(CO)[C@@H](O)[C@H](O)[C@H]1O` (stereo not given in full) [Acarbose], the “S. Typhimurium luminescence” value in test [1] (setting [3]) worked out at 1.91; in test [1] (setting [4]), 1.61; in test [1] (setting [5]), 1.86; in test [1] (setting [6]), 1.82; in test [1] (setting [7]), 2. Also, the pathogen growth in test [2] (setting [3]) was found to be 2.54; in test [2] (setting [4]) it was 2.37; in test [2] (setting [5]), 2.46; in test [2] (setting [6]), 3.06; in test [2] (setting [7]), 2.33.
Take `CN(C)CCCN1c2ccccc2Sc2ccc(Cl)cc21` [Chlorpromazine]: the “S. Typhimurium luminescence” value was determined as 1.72 in test [1] (setting [3]); 1.45 in test [1] (setting [4]); 1.38 in test [1] (setting [5]); 1.82 in test [1] (setting [6]); 3.86 in test [1] (setting [7]). For the same molecule, the pathogen growth in test [2] (setting [3]) came to 1.42; in test [2] (setting [4]) it was 1.1; in test [2] (setting [5]), 1.28; in test [2] (setting [6]) it was 3; in test [2] (setting [7]), 7.74.
Take `CN(C)CC/C=C1/c2ccccc2Sc2ccc(Cl)cc21` [Chlorprothixene]: the “S. Typhimurium luminescence” value came out at 1.31 in test [1] (setting [3]); 1.1 in test [1] (setting [4]); 1.31 in test [1] (setting [5]); 1.91 in test [1] (setting [6]); 2.21 in test [1] (setting [7]). The pathogen growth in test [2] (setting [3]) is 1.37; in test [2] (setting [4]), 1.27; in test [2] (setting [5]), 1.07; in test [2] (setting [6]) it was 1.84; in test [2] (setting [7]), 6.34.
Turning to `Clc1ccc(Cn2c(CN3CCCC3)nc3ccccc32)cc1` [Clemizole], the “S. Typhimurium luminescence” value in test [1] (setting [3]) was determined as 1.57; in test [1] (setting [4]), 1.25; in test [1] (setting [5]), 1.21; in test [1] (setting [6]) it was 1.14; in test [1] (setting [7]), 1.32. Moreover, the pathogen growth in test [2] (setting [3]) was found to be 1.36; in test [2] (setting [4]) it was 1.33; in test [2] (setting [5]), 1.33; in test [2] (setting [6]), 1.56; in test [2] (setting [7]), 2.14.
Regarding `CC(=O)Oc1cccc2c1C(=O)c1c(OC(C)=O)cc(C(=O)O)cc1C2=O` [Diacerein], the “S. Typhimurium luminescence” value in test [1] (setting [3]) was 1.02; in test [1] (setting [4]) it was 0.726; in test [1] (setting [5]), 0.254; in test [1] (setting [6]) it was 1.34; in test [1] (setting [7]), 6.23. The pathogen growth came out at 0.856 in test [2] (setting [3]); 1.53 in test [2] (setting [4]); 1.87 in test [2] (setting [5]); 5.83 in test [2] (setting [6]); 6.02 in test [2] (setting [7]).
On to `O=c1oc2ccccc2c(O)c1Cc1c(O)c2ccccc2oc1=O` [Dicumarol], for which the “S. Typhimurium luminescence” value turned out to be 1.19 in test [1] (setting [8]); 1.06 in test [1] (setting [9]); 1.17 in test [1] (setting [3]); 1.01 in test [1] (setting [4]); 1.26 in test [1] (setting [5]). Also, the pathogen growth in test [2] (setting [8]) came out at 1.38; in test [2] (setting [9]) it was 1.16; in test [2] (setting [3]) it was 0.985; in test [2] (setting [4]) it was 1.08; in test [2] (setting [5]), 1.32.
Take `C/C=C(/C(=C/C)c1ccc(O)cc1)c1ccc(O)cc1` [Dienestrol]: the “S. Typhimurium luminescence” value in test [1] (setting [8]) is 1.44; in test [1] (setting [9]), 0.925; in test [1] (setting [3]), 1.07; in test [1] (setting [4]) it was 1.17; in test [1] (setting [5]), 1.94. Besides, the pathogen growth in test [2] (setting [8]) amounted to 1.1; in test [2] (setting [9]), 0.881; in test [2] (setting [3]), 0.839; in test [2] (setting [4]) it was 1.27; in test [2] (setting [5]) it was 2.77.
